Experimental data from the GPR68 mutational scans of Howard et al. (2025).

B1: GPR68, Q15743 (parent)
chain: MGNITADNSSMSCTIDHTIHQTLAPVVYVTVLVVGFPANCLSLYFGYLQIKARNELGVYLCNLTVADLFYICSLPFWLQYVLQHDNWSHGDLSCQVCGILLYENIYISVGFLCCISVDRYLAVAHPFRFHQFRTLKAAVGVSVVIWAKELLTSIYFLMHEEVIEDENQHRVCFEHYPIQAWQRAINYYRFLVGFLFPICLLLASYQGILRAVRRSHGTQKSRKDQIQRLVLSTVVIFLACFLPYHVLLLVRSVWEASCDFAKGVFNAYHFSLLLTSFNCVADPVLYCFVSETTHRDLARLRGACLAFLTCSRTGRAREAYPLGAPEASGKSGAQGEEPELLTKLHPAFQTPNSPGSGGFPTGRLA

Legend:
[1] = variants of: B1; experiment: cAMP reporter score (Enrich2 score, wild type = 0); higher = more signal; HEK293T, FACS bins
[2] = variants of: B1; experiment: surface expression score (Enrich2 score, wild type = 0); higher = more signal; HEK293T, FACS bins

Variant	cAMP reporter score ([1]; pH 5.5)	cAMP reporter score ([1]; pH 6)	cAMP reporter score ([1]; pH 6, modulator: ogerin)	cAMP reporter score ([1]; pH 6.5, modulator: ogerin)	surface expression score [2]
A256P	-0.41	-0.546	-0.229	0.197	3.46
A256C	0.111	-0.621	0.184	-1.19	-0.482
A256R	0.916	1.22	0.988	–	1.21
A256V	-0.786	-0.516	-0.546	-0.653	-0.601
A256D	0.57	1.68	0.437	2.06	0.642
A256F	0.269	0.519	0.913	1.4	-0.147
A256W	1.44	–	0.392	-0.427	–
S257_C258insGS	-0.386	-0.677	-0.916	-1.2	1.95
C258_D259insGSG	-1.29	-0.613	-0.739	-0.391	1.85
V253_E255del	-1.11	-1.73	-1.61	-0.906	-2.07
A261_K262insGS	-1.25	-0.845	-1.13	-1.32	-1.05
S257_C258insG	-2.37	-1.3	-1.9	-1.4	0.643
A261_K262insGSG	-0.918	-0.834	-1.83	-0.855	-0.761
R251_S252insGS	-1.36	-0.979	-1.07	-1.45	-1.62
A261D	-1.14	-1.4	-1.46	-1.39	-0.315
A261S	-0.033	0.184	-0.646	0.228	-1.1
A261P	-0.296	-1.1	-0.207	-0.35	0.26
A261W	-1.44	-1.19	-1.84	-2.28	-0.141
A261I	-0.186	-1.03	-0.7	-0.426	-0.546
A261H	-1.46	-1.37	-2.25	-0.808	0.939
A261V	-0.012	-0.436	0.528	–	–

Variant	cAMP reporter score ([1]; pH 5.5)	cAMP reporter score ([1]; pH 6)	cAMP reporter score ([1]; pH 6, modulator: ogerin)	cAMP reporter score ([1]; pH 6.5, modulator: ogerin)	surface expression score [2]
A261M	-1.7	-1.35	-0.601	–	0.162
A261C	-0.343	-0.706	-0.768	-1.3	-0.055
A261Q	-0.906	-0.856	-0.5	-0.804	1.84
A261E	0.059	-0.703	–	-1.06	-0.541
A261K	-1.22	-0.289	-1.34	-0.782	0.752
A261Y	-1.24	-1.94	-1.55	-1.54	0.427
A261L	-1.26	-0.308	-1	-0.685	-0.516
A261T	0.873	-0.765	-0.253	-0.989	1.11
A261G	-0.255	-0.705	-1.11	-1.04	-0.006
A261R	-1.14	–	-0.222	-0.949	1.86
A261N	-1.76	–	-2.47	-0.758	-0.004
A261_K262del	-1.34	-0.209	–	-0.144	0.053
F260_A261insG	-0.951	-1.02	-1.54	-1.07	-0.702
S257_D259del	-1.37	-1.1	-1.48	-1.25	-2.39
S257del	-1.68	-0.235	-1.59	-1.03	-1.28
V250del	-0.313	0.623	–	-0.741	-2.43
S252_V253insG	-0.75	-1.42	-0.554	-0.819	-0.426
E255_A256del	-1.32	-1.27	-1.34	-1.37	-1.91
K262A	0.907	0.83	0.154	0.421	0.414
K262D	0.762	0.057	0.854	0.169	-0.615
K262C	-0.543	-1.08	-0.451	-0.045	-1.97

Variant	cAMP reporter score ([1]; pH 5.5)	cAMP reporter score ([1]; pH 6)	cAMP reporter score ([1]; pH 6, modulator: ogerin)	cAMP reporter score ([1]; pH 6.5, modulator: ogerin)	surface expression score [2]
K262F	-0.008	0.336	-0.252	-1.06	-1.28
K262E	0.879	–	0.97	0.838	-0.355
V250_R251del	-1.35	-1.36	-1.32	-1.53	-2.67
R251_V253del	-1.65	–	-1.53	-0.761	-3.02
F260P	-1	-1.03	-1.53	-0.791	0.026
F260Q	-1.05	1.03	-0.492	-0.15	-0.199
F260K	0.267	-0.799	-0.826	-0.73	-0.611
F260M	0.798	-0.599	-0.232	-0.512	-0.371
F260T	-0.256	-0.683	0.017	-0.787	0.432
F260R	0.059	-0.28	–	0.123	1.26
F260V	-0.424	–	–	-3.63	–
F260G	0.141	-0.259	0.255	-0.501	-0.01
F260Y	-0.457	-1.33	-0.604	-0.743	0.329
F260E	-0.01	-0.18	0.117	-0.193	0.417
F260N	0.319	–	1.08	2.33	1.07
F260L	0.018	-0.517	-0.422	-0.723	0.265
F260I	-0.736	-0.571	-0.849	-0.788	0.2
F260S	0.183	-0.24	0.549	-0.198	0.898
F260W	-0.07	-1.01	0.097	0.046	-0.055
F260H	-0.344	0.195	-0.179	0.32	0.324
C258_D259del	-0.98	-0.645	-1.38	-1.11	-1.99

The least precise scores are not listed. The source holds two more conditions with little spread; they are left out. In variant names, del marks residues removed and ins residues inserted between the two positions. For part of these data: The data file names ogerin without a concentration.
